About 2,200 (0.71%) of roughly 310,000 compounds showed an effect of 50% or more. Effects have a minus sign here. The list shows a part of the results.
The molecules below were run against human ether-à-go-go-related gene (hERG) potassium channel (human, UniProt Q12809) (assay: primary screen, population patch clamp on CHO cells stably expressing hERG).
Sequence of human ether-à-go-go-related gene (hERG) potassium channel (Q12809 whole entry, looked up): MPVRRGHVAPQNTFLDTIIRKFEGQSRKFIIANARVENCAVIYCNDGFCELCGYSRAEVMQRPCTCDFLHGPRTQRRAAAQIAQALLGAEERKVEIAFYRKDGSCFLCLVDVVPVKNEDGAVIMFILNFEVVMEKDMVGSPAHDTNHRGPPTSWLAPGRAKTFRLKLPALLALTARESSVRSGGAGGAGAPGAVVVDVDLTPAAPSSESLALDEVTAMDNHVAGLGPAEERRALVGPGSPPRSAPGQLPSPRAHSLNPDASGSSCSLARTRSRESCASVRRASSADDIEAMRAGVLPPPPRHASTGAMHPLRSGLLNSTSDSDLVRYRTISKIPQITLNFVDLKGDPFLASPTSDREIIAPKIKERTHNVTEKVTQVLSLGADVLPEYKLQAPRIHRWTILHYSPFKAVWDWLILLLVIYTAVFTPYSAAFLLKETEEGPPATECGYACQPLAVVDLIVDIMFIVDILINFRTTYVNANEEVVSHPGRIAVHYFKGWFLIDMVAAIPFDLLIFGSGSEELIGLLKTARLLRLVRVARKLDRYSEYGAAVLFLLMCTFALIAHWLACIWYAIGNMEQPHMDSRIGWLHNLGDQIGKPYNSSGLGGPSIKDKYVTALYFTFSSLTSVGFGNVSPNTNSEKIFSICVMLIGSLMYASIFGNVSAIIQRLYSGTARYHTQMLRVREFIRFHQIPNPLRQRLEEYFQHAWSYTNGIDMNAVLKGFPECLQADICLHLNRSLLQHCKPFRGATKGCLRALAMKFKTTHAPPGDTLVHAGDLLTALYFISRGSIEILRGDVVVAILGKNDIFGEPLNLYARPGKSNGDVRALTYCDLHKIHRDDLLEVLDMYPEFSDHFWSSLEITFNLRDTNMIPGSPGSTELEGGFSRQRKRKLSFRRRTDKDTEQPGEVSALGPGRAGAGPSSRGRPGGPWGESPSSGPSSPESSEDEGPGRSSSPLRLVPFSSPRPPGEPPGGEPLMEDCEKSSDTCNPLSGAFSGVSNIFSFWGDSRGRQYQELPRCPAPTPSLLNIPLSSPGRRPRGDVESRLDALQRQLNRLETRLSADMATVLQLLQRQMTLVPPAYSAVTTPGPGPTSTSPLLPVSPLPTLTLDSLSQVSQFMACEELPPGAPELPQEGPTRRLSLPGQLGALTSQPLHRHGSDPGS

**Q.** How did the “hERG current change (%, negative = inhibition) at 1uM” value turn out when `CSCC[C@H](NC(=O)N1CCn2c1nc1ccccc12)C(=O)N[C@H](Cc1ccccc1)C(=O)O` was run?
**A.** 1.65%

**Q.** With `Cc1ccc(S(=O)(=O)N(CC(=O)NC2CCCC2)c2cccc(C)c2)cc1` as the molecule, how does the “hERG current change (%, negative = inhibition) at 1uM” value read?
**A.** 4.72%

**Q.** With `Cc1cc(NS(=O)(=O)c2ccc(NC(=S)NC(=O)c3ccccc3)cc2)no1` as the molecule, how does the “hERG current change (%, negative = inhibition) at 1uM” value read?
**A.** 4.47%

**Q.** Which “hERG current change (%, negative = inhibition) at 1uM” value does the source give for `CNCCCOc1ccc(C)cc1Br.O=C(O)C(=O)O` here?
**A.** 3.15%

**Q.** `COc1ccc(-n2nnnc2SCC(=O)Nc2nnc(C)s2)cc1OC` was tested. Which “hERG current change (%, negative = inhibition) at 1uM” value did it give?
**A.** -7.62%

**Q.** For `C=C(C)CCC(C)N1CCC(n2nccc2NC(=O)CCOc2ccccc2)CC1` (stereo not shown), which “hERG current change (%, negative = inhibition) at 1uM” value is on record?
**A.** 10.3%

**Q.** How did the “hERG current change (%, negative = inhibition) at 1uM” value turn out when `CCN(CC)c1ccc(NC(=O)c2ccccc2Br)cc1S(=O)(=O)Nc1ccccc1OC` was run?
**A.** 1.82%

**Q.** With `O=C(CN(Cc1ccco1)C(=O)c1cc(=O)[nH]c2ccccc12)Nc1ccccc1Br` as the molecule, how does the “hERG current change (%, negative = inhibition) at 1uM” value read?
**A.** -2.41%

**Q.** With `COc1ccccc1-c1csc(-n2ncc(C#N)c2N)n1` as the molecule, how does the “hERG current change (%, negative = inhibition) at 1uM” value read?
**A.** 29.4%

**Q.** With `CCOC(=O)C1(Cc2ccc(OC)cc2)CCN(C(=O)Cn2cnnn2)CC1` as the molecule, how does the “hERG current change (%, negative = inhibition) at 1uM” value read?
**A.** -0.482%

**Q.** How did the “hERG current change (%, negative = inhibition) at 1uM” value turn out when `O=c1ccc(Cl)cn1Cc1ccccc1F` was run?
**A.** 0.163%

**Q.** `COC(=O)c1ccccc1NC(=O)CCCCCn1nnc2ccccc2c1=O` was tested. Which “hERG current change (%, negative = inhibition) at 1uM” value did it give?
**A.** 17%

**Q.** With `COc1ccc(C2(C)NC(=O)N(CC(=O)NC3CCCC3)C2=O)cc1OC` (stereo not shown) as the molecule, how does the “hERG current change (%, negative = inhibition) at 1uM” value read?
**A.** 17.7%

**Q.** With `O=C(/C=C/c1ccccc1Cl)N(Cc1ccccc1)C1CCS(=O)(=O)C1` (stereo not shown) as the molecule, how does the “hERG current change (%, negative = inhibition) at 1uM” value read?
**A.** 6.7%

**Q.** For `C=CCSc1nc2ccccc2c(=O)n1C1CCOC(C)(C)C1` (stereo not shown), which “hERG current change (%, negative = inhibition) at 1uM” value is on record?
**A.** 34.1%

**Q.** Which “hERG current change (%, negative = inhibition) at 1uM” value does the source give for `O=c1c2cc(N3CCOCC3)ccc2[nH]c(=S)n1CCCN1CCN(c2ccccc2F)CC1` here?
**A.** 0.408%

**Q.** How did the “hERG current change (%, negative = inhibition) at 1uM” value turn out when `CC(C(=O)N1CCc2ccccc21)N1CCN(Cc2ccccc2)CC1` (stereo not shown) was run?
**A.** 4.18%

**Q.** With `O=S1(=O)N=C(N2CCc3ccccc3C2)c2ccccc21` as the molecule, how does the “hERG current change (%, negative = inhibition) at 1uM” value read?
**A.** -8.05%

**Q.** `COc1ccc(C(CC(=O)O)NC(=O)c2sc3ccccc3c2Cl)cc1` (stereo not shown) was tested. Which “hERG current change (%, negative = inhibition) at 1uM” value did it give?
**A.** 4.51%

**Q.** Which “hERG current change (%, negative = inhibition) at 1uM” value does the source give for `COc1cc(OC)cc(C(=O)N/N=C/c2ccc(OC)c(COc3ccc4ccccc4c3)c2)c1` here?
**A.** 10.8%

**Q.** For `O=C(Nc1cccc2ncccc12)C(c1ccccc1)c1ccccc1`, which “hERG current change (%, negative = inhibition) at 1uM” value is on record?
**A.** 6.03%

**Q.** With `COc1ccc(CCNCc2ccsc2)cc1OC` as the molecule, how does the “hERG current change (%, negative = inhibition) at 1uM” value read?
**A.** 17.8%

**Q.** Which “hERG current change (%, negative = inhibition) at 1uM” value does the source give for `COc1ccc(CC(=O)n2[nH]c(=O)cc(C)c2=O)cc1OC` here?
**A.** 6.44%

**Q.** For `O=C(NNC(=O)c1ccc(-n2cncn2)c([N+](=O)[O-])c1)c1ccccc1`, which “hERG current change (%, negative = inhibition) at 1uM” value is on record?
**A.** 13%

**Q.** `Cc1ccc(Cl)cc1NC(=O)CCn1cccc1` was tested. Which “hERG current change (%, negative = inhibition) at 1uM” value did it give?
**A.** 10.3%

**Q.** For `CC(C)C(c1nnnn1Cc1ccco1)N1CCN(c2cccc(Cl)c2)CC1` (stereo not shown), which “hERG current change (%, negative = inhibition) at 1uM” value is on record?
**A.** 9.2%

**Q.** With `CCSC1=C(C#N)C(c2ccc(C)s2)CC(=O)N1` (stereo not shown) as the molecule, how does the “hERG current change (%, negative = inhibition) at 1uM” value read?
**A.** 5.87%

**Q.** With `C#CCSc1nc(=O)c2cccnc2n1-c1ccc(C)cc1` as the molecule, how does the “hERG current change (%, negative = inhibition) at 1uM” value read?
**A.** -1.46%

**Q.** `O=c1c2ccccc2c(-c2ccccc2)nn1Cc1ccc(Cl)cc1` was tested. Which “hERG current change (%, negative = inhibition) at 1uM” value did it give?
**A.** 14.3%

**Q.** With `O=C(Cc1ccc(Br)cc1)N1CCCC1` as the molecule, how does the “hERG current change (%, negative = inhibition) at 1uM” value read?
**A.** 12.1%

**Q.** Which “hERG current change (%, negative = inhibition) at 1uM” value does the source give for `CCOCCCNC(=O)Cn1nc(Cc2ccncc2)c2ccccc2c1=O` here?
**A.** 10.8%

**Q.** With `Cc1nn(-c2cccc(Cl)c2)c2nc(C(F)(F)F)[nH]c(=O)c12` as the molecule, how does the “hERG current change (%, negative = inhibition) at 1uM” value read?
**A.** 9.58%

**Q.** `CCc1ccc(N2CC(C(=O)NCC(C)(C)N3CCOCC3)CC2=O)cc1` (stereo not shown) was tested. Which “hERG current change (%, negative = inhibition) at 1uM” value did it give?
**A.** 12.8%

**Q.** With `CCCc1cc(C(=O)Nc2cc(C)ccc2O)no1` as the molecule, how does the “hERG current change (%, negative = inhibition) at 1uM” value read?
**A.** 7.19%

**Q.** `CCCC(=O)N(CCN(C(=O)CCC)c1ccccc1)c1ccccc1` was tested. Which “hERG current change (%, negative = inhibition) at 1uM” value did it give?
**A.** 5.23%

**Q.** Which “hERG current change (%, negative = inhibition) at 1uM” value does the source give for `NC(=O)CN1N=C(c2cc(Cl)sc2Cl)CSC1=O` here?
**A.** -1.93%

**Q.** For `N#Cc1nc(Cc2ccccc2)oc1NCc1ccccc1`, which “hERG current change (%, negative = inhibition) at 1uM” value is on record?
**A.** -4.62%

**Q.** For `N#C/C(=C\c1c(F)cccc1Cl)C(=O)NC1CC1`, which “hERG current change (%, negative = inhibition) at 1uM” value is on record?
**A.** -5.1%

**Q.** For `O=C(O)c1ccc(NC(=O)C2CC=CCC2C(=O)O)cc1` (stereo not shown), which “hERG current change (%, negative = inhibition) at 1uM” value is on record?
**A.** -12%

**Q.** With `COCCN(C(=O)COC(=O)c1sccc1C)c1c(N)n(Cc2ccccc2)c(=O)[nH]c1=O` as the molecule, how does the “hERG current change (%, negative = inhibition) at 1uM” value read?
**A.** 13.2%

**Q.** With `CC1Cc2ccccc2N1C(=O)CSc1nnc2c(n1)[nH]c1ccc(F)cc12` (stereo not shown) as the molecule, how does the “hERG current change (%, negative = inhibition) at 1uM” value read?
**A.** 10.8%

**Q.** `Cc1[nH]c(C)c(S(=O)(=O)NCc2ccc(Cl)cc2)c1C(=O)N1CCCC1` was tested. Which “hERG current change (%, negative = inhibition) at 1uM” value did it give?
**A.** 19.2%

**Q.** With `O=C(Cc1ccccc1)N/N=C/c1ccc(OC(=O)/C=C\c2ccco2)cc1` as the molecule, how does the “hERG current change (%, negative = inhibition) at 1uM” value read?
**A.** 6.29%

**Q.** For `CCOC(=O)Cc1nn(CC)c(=O)c2ccccc12`, which “hERG current change (%, negative = inhibition) at 1uM” value is on record?
**A.** 16.9%

**Q.** With `O=C1Nc2cc(C(=O)N3CCOCC3)ccc2SC1N1CCOCC1` (stereo not shown) as the molecule, how does the “hERG current change (%, negative = inhibition) at 1uM” value read?
**A.** 7.61%

**Q.** With `O=C(Cn1nnc(-c2ccc(CN3CCOCC3)cc2)n1)NC1CCCCC1` as the molecule, how does the “hERG current change (%, negative = inhibition) at 1uM” value read?
**A.** -7.82%

**Q.** Which “hERG current change (%, negative = inhibition) at 1uM” value does the source give for `CCCC(c1nnnn1C(C)(C)CC)N1CCN(C2CCCC2)CC1.Cl` (stereo not shown) here?
**A.** -17.8%

**Q.** `COC(=O)c1cccnc1NC(=S)NC(C)C` was tested. Which “hERG current change (%, negative = inhibition) at 1uM” value did it give?
**A.** 1.57%

**Q.** `C/C(=N\NS(=O)(=O)c1ccc(C)cc1)c1ccc(C)s1` was tested. Which “hERG current change (%, negative = inhibition) at 1uM” value did it give?
**A.** 15.4%

**Q.** For `Cc1ccc(C(=O)C2CCN(CC(=O)Nc3nc(C)cs3)CC2)cc1`, which “hERG current change (%, negative = inhibition) at 1uM” value is on record?
**A.** -7.31%

**Q.** Which “hERG current change (%, negative = inhibition) at 1uM” value does the source give for `COCCN(C(=O)c1ccc(C#N)cc1)c1c(N)n(Cc2ccccc2)c(=O)[nH]c1=O` here?
**A.** 9.54%

**Q.** `c1ccc2nc3c(cc2c1)CCCCCC3` was tested. Which “hERG current change (%, negative = inhibition) at 1uM” value did it give?
**A.** 12.4%

**Q.** How did the “hERG current change (%, negative = inhibition) at 1uM” value turn out when `Cc1cccc(NC(=O)CSCC(=O)Nc2cccc3ncccc23)c1` was run?
**A.** 10.2%

**Q.** Which “hERG current change (%, negative = inhibition) at 1uM” value does the source give for `CN1CCC/C1=C/C=C1\SC(=S)NC1=O` here?
**A.** 7.98%

**Q.** Which “hERG current change (%, negative = inhibition) at 1uM” value does the source give for `CCc1ccc(NC(=O)CCS(=O)(=O)c2ccc(Br)cc2)cc1` here?
**A.** 22.3%

**Q.** With `COc1ccccc1NC(=O)C1=C(C)Nc2nnnn2C1c1ccccn1` (stereo not shown) as the molecule, how does the “hERG current change (%, negative = inhibition) at 1uM” value read?
**A.** 13.2%

**Q.** With `O=C(NCCCN1CCOCC1)c1ccc2ccccc2c1` as the molecule, how does the “hERG current change (%, negative = inhibition) at 1uM” value read?
**A.** 0.695%

**Q.** How did the “hERG current change (%, negative = inhibition) at 1uM” value turn out when `CCC1C/C(=C/c2ccco2)C(=O)/C(=C/c2ccco2)C1` (stereo not shown) was run?
**A.** 1.75%

From article PMC4336329 (PLoS ONE, 2015)
